Experimental data taken from PubChem BioAssay AID686978 (National Center for Advancing Translational Sciences (NCATS), 2013).
About 64,000 (15%) of roughly 420,000 compounds were called active. The inconclusive results got no clear call from the source; some entries with a clear call stand among them for comparison. The call rests on the fitted dose curve; in most records, active means well fitted inhibition curve with a large enough effect; inconclusive means small, poorly fitted or top-dose-only effect; inactive means flat fitted curve, though single readings scatter. No potency is given beside an inconclusive call; the fits are too rough.

Experiment: qHTS for Inhibitors of human tyrosyl-DNA phosphodiesterase 1 (TDP1): qHTS in cells in absence of CPT; further: nearly all actives have a fitted effect of over 55% in size
Conditions: DT40 Tdp1-/- hTDP1 cells, no CPT, ATP luminescence, 48 h; activity change, negative = growth inhibition: at 46.2 µM (top of the series) unless noted
Method in brief: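 Seeded 400 DT40-hTDP1 cells/well (vehicle DMSO, no 20 nM CPT); pinned compounds; ≥48 hr at 37 °C; CellTiter-Glo luminescence as viability measure.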
On the % scale 0 is the no-effect control and ±100 the full control effect; potency means the concentration at half of the fitted maximal effect; tags describe the fitted curve by direction and shape.

| Compound | Potency | activity change, negative = growth inhibition |
| --- | --- | --- |
| Cc1cccc(NC(=O)CN2CCN(CC(=O)Nc3ccc(-c4ccccc4)cc3)CC2)c1C | inconclusive [inhibitor, single point] |  |
| O=C(Cn1c(=O)c2sccc2n(CC(=O)Nc2ccc(Cl)cc2Cl)c1=O)NCCc1ccccc1 |  | inactive: -17.9% |
| Cc1ccc(NC(=O)N2CCc3c([nH]c4ccccc34)C2c2ccccc2F)c(Cl)c1 (centres undefined) | active: 23.1 µM |  |
| CCOC12CC(C)(C)CC(C)(CC3=C1C(=O)CC(C)(C)C3)C2 (centres undefined) |  | inconclusive: -33.9% [inhibitor] |
| CNC(=S)NNC(=O)COc1ccc(C)c(C)c1 | inconclusive [inhibitor, single point] |  |
| Cc1ccc(S(=O)(=O)c2nnn3c2nc(N2CCC(C(N)=O)CC2)c2ccccc23)cc1C |  | inactive: 7.23% |
| CC(Sc1ncnc2ccccc12)C(=O)Nc1ccc2c(c1)OCCO2 (centres undefined) | active: 13 µM |  |
| CC(C)c1ccc(S(=O)(=O)N2CCN(C(C)C(=O)NC3CCCC3)CC2)cc1 (centres undefined) | inconclusive [inhibitor, single point] |  |
| Cn1ncc(Cl)c1C(=O)N1CCN(C(=O)c2ccco2)CC1 |  | inactive: 19.1% |
| O=C(NCc1cccs1)c1cc(-c2ccccn2)nc2ccc(Br)cc12 | inconclusive [inhibitor, partial curve, poor fit] |  |
| Oc1[nH]c2ccccc2c1N=Nc1cccc(Cl)c1 |  | inactive: 0.404% |
| COc1cc(S(=O)(=O)N2CCOCC2)ccc1NC(=O)COc1ccc(N(C)S(=O)(=O)c2ccc(C)cc2)cc1 | inconclusive [inhibitor, single point] |  |
| CC(=O)Nc1nc(C)c(-c2csc(Nc3cccc([N+](=O)[O-])c3)n2)s1 | active: 5.17 µM |  |
| O=C(NCc1ccccn1)c1[nH]c(C(F)(F)F)nc1-c1ccccc1 |  | inactive: 0.892% |
| Cc1ccc(C)c(NS(=O)(=O)c2ccc3c(c2)CCCN3C(=O)C2CCC2)c1 | inconclusive [inhibitor, single point] |  |
| O=C(NCc1ccccc1F)C(=O)NCC(c1ccco1)S(=O)(=O)c1ccccc1 (centres undefined) | inconclusive [inhibitor, single point] |  |
| N#Cc1ccsc1NC(=O)CCN1CCN(C(c2ccccc2)c2ccccc2)CC1 | active: 25.9 µM |  |
| CCCCCCCCOC(=O)C(NC(=O)CCC(=O)Nc1ccc(S(N)(=O)=O)cc1)C(O)c1ccccc1 (centres undefined) | inconclusive [inhibitor, single point] |  |
| Cc1cccc(-c2n[nH]nc2C2=CC(=O)CC(C)(C)C2)c1 | inconclusive [inhibitor, single point] |  |
